US20170043031A1, “IGF-1R ANTIBODY-DRUG-CONJUGATE AND ITS USE FOR THE TREATMENT OF CANCER” (PIERRE FABRE MEDICAMENT, priority 2014, published 2017)
“And” between values parts separate entries of the source, which are not always exact repeats. Identical values can stand only once.

Assays:
[1] = test system: Human Pulmonary Microvascular Endothelial Cells (HPMEC); assay: FACS binding of c208F2 on primary normal cells; details: 10 μg/ml of c208F2, HPMEC
Description: (§1) The expression levels of IGF-1R were evaluated on primary normal cells (PromoCell GmbH) using c208F2 mAb. For that purpose, cells (0.5×10^6 cells/ml) were incubated with 10 μg/ml of c208F2 antibody for 20 min. at 4° C. in FACS buffer (PBS, 0.1% BSA, 0.01% NaN3). They were then washed 3 times and incubated with the appropriate secondary antibody coupled with Alexa 488 for 20 additional minutes at 4° C. in the dark before being washed 3 times in FACS buffer. The binding of anti-IGF-1R antibody was immediately performed on viable cells which were identified using propidium iodide (that stains dead cells). The expression level (Bmax) was low on normal cells (Table 14) compared to IGF-1R expression on MCF-7 cells (see example 2, table 8).

[2] = test system: Human Renal Epithelial Cells (HREpC); assay: FACS binding of c208F2 on primary normal cells; details: 10 μg/ml of c208F2, HREpC
Description: as §1

[3] = test system: Human Bronchial Smooth Muscle Cells (HBSMC); assay: FACS binding of c208F2 on primary normal cells; details: 10 μg/ml of c208F2, HBSMC
Description: as §1

[4] = test system: Human Urethelial Cells (HUC); assay: FACS binding of c208F2 on primary normal cells; details: 10 μg/ml of c208F2, HUC
Description: as §1

[5] = test system: Human Aortic Endothelial Cells (HAoEC); assay: FACS binding of c208F2 on primary normal cells; details: 10 μg/ml of c208F2, HAoEC
Description: as §1

[6] = test system: soluble recombinant cynomolgus IGF-1R; assay: Biacore X100 single cycle kinetics, around 160 RU captured antigen (Example 4); type: binding; details: IGF1R cynomogus
Description: (§2) The recognition experiments were run on a Biacore X100 device using a CM5 sensor chip activated by an anti-Tag His antibody (His capture kit GE Healthcare catalogue number 28-9950-56). More than 11000 RU of antibodies are chemically grafted on the carboxymethyldextan matrix using the amine kit chemistry. The experiments were carried out at 25° C. with a flow rate of 30 μl/min using the HBS-EP buffer (GE Healthcare) as the running and sample dilution buffer.
(§3) A solution of a soluble recombinant version of the IGF-1R hetero-tetramere composed of 2α chains and the extracellular domains of 2β chains expressed with an additional C-terminal 10-His tag, based either on the sequence of the human (R&D Systems catalogue number 305-GR-50) or of the one of cynomolgus (produced in house) was injected 1 minute on the second flowcell at a dilution defined to capture around 160 RU of antigen. After the capture phase, either the running buffer was injected 5 times (90 s each injection) or a growing range of 5 concentrations of c208F2 were injected (90 s each injection) on both flowcells. At the end of the fifth injection the running buffer was passed in order to define the dissociation rate.
(§4) The surface was then regenerated with an injection of a 10 mM Glycine, HCl pH 1.5 buffer during 30 s.
(§5) The computed signal corresponds to the difference between the response of the flowcell 2 (with captured IGF-1R) and the response of the flowcell 1 (without any IGF-1R molecules) (FIG. 6).
(§6) For each IGF-1R molecule (human or cyno), the signal due to the injections of the growing range of concentrations of c208F2 was corrected by subtraction of the signal obtained with the 5 injections of the buffer (double reference). The resulting sensorgrams were analysed using the Biaevaluation software with a 1:1 model. The kinetic rates are evaluated either independently (2 kinetics rates of the binding of c208F2 on each IGF-1R) or commonly (the same kinetic rates of the binding of c208F2 on the human and the cynomolgus IGF-1R). The quality of the fitting was assessed by a Chi2/Rmax ratio lower than 0.05 RU.

[7] = target: T1, soluble recombinant human IGF-1R (Homo sapiens, UniProt P08069); assay: as above; type: binding; details: IGF1R human
T1 construct: composed of 2α chains and the extracellular domains of 2β chains; purchased R&D Systems 305-GR-50
Description: as §2, §3, §4, §5, §6

[8] = target: human and the cynomolgus IGF-1R; assay: Biacore X100, common fit of both sensorgrams (Example 4); type: binding; details: Hum. & Cyno., same kinetic rates fitted
Description: as §2, with “buffer. […]” for “buffer.”
as §6

IGF-1R on MCF-7 cells = target: T2, IGF-1R on MCF-7 cells (Homo sapiens, UniProt P08069); assay: IGF-1R internalization by FACS on MCF-7 cells (4° C. vs 37° C., 4 h); type: cell-based; details: MCF-7, chimeric antibodies; read-out: ΔMFI_EC50
T2 construct: all generated antibodies are capable to recognize the native IGF-1R form; host or cells: MCF-7
Description: (§7) MCF-7 cells were incubated with 10 μg/ml of chimeric antibodies at 4° C. for 20 min. Then, cells were washed and incubated at 4° C. or 37° C. for 4 h. The quantity of cell-surface bound antibody was determined using a secondary antibody. The ΔMFI defined as the difference between MFI measured at 4° C. and MFI measured at 37° C. after a 4 hour incubation time corresponded to the quantity of internalized Ab. The percentage of internalization at 10 μg/ml of Ab were calculated as followed 100*(MFI at 4° C.−MFI at 37° C.)/MFI at 4° C. and presented in Table 11.
as §7, with “The capacity of the mAb hz208F2 VH3NL3 to be internalized was assessed by flow cytometry. MCF-7” for “MCF-7”, “of” for “of chimeric”, “13.” for “11.”
as §7, with “of humanized” for “of chimeric”, “secondary antibody on a FacsCalibur Flow cytometer (Becton Dickinson).” for “secondary antibody.”, “Ab was” for “Ab were”, “C. The humanized antibody hz208F2 H077/L018 is able to induce a significant internalization of IGF-1R.” for “C. and presented in Table 11.”

Kd ([6]; around 160 RU captured): ~0.2 nM and 0.17 nM | koff ([7]; 25° C., 1:1 model): 0.00034 s⁻¹ | Kd ([7]; around 160 RU captured): ~0.2 nM and 0.23 nM | Kd [8]: 0.22 nM | EC50 (IGF-1R on MCF-7 cells): 0.18 nM
B1: c208F2: chimeric 208F2 antibody, heavy chain SEQ ID No. 23, light chain SEQ ID No. 28 (antibody)
heavy: QVQLQQSGPELVKPGASVKMSCKASGYTFTSYYIYWVKQRPGQGLEWLGWIWPGDGSTKYNEKFKDKTTLTADKSSNTAYMFLSSLTSEDSAVYFCASPMITPNYAMDYWGQGASVTVSSASTKGPSVFPLAPSSKSTSGGTAALGCLVKDYFPEPVTVSWNSGALTSGVHTFPAVLQSSGLYSLSSVVTVPSSSLGTQTYICNVNHKPSNTKVDKRV[human IgG1 Fc not written out]
light: DIQMTQTTSSLSASLGDRVTISCRASQDISKYLNWYQQQPDGTIKLLIYYTSRLHSGVPSRFSGRGSGTDYSLTISNVEQEDIATYFCQQGSTLPYTFGGGTKLEIKRTVAAPSVFIFPPSDEQLKSGTASVVCLLNNFYPREAKVQWKVDNALQSGNSQESVTEQDSKDSTYSLSSTLTLSKADYEKHKVYACEVTHQGLSSPVTKSFNRGEC
modifications: c208F2, heavy chain, full length; c208F2, light chain, full length
Bmax [1]: 33 | Bmax [2]: 110 | Bmax [3]: 26 | Bmax [4]: 181 | Bmax [5]: 21 | koff ([6]; 25° C., 1:1 model): 0.00031 s⁻¹ | koff [8]: 0.000333 s⁻¹
